Experimental findings from PMC12820563, “FoxP3 forms a head-to-head dimer in vivo and stabilizes its multimerization on adjacent microsatellites” are described below.

Some of the results follow.

The assay concerns the target T1, MBP-FoxP1dN (Mus musculus, UniProt P58462 326-579).
T1 sequence: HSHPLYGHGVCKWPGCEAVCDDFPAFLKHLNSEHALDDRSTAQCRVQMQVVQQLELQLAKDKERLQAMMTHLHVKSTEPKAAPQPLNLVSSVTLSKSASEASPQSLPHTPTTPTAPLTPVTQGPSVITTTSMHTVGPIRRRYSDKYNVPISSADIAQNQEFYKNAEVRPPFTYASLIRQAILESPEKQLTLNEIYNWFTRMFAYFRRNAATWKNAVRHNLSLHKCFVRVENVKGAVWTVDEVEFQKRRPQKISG
As to the kind of experiment: PD-seq (MBP pull-down with sequencing); 20 mM Tris-HCl pH 7.5, 100 mM NaCl, 1.5 mM MgCl2, 0.4 uM protein, 0.1 uM dsDNA library, 30 min, room temperature, amylose pull-down; high values mean tight binding. Conditions: protein: recombinant; tags: His6-MBP; chain copies: 2; dsDNA, one strand shown. In outline:
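E. coli-expressed mouse FoxP3 or FoxP1 fragment, N-terminus removed and tagged with His6-MBP, was used at 0.4 µM against 0.1 µM of a Klenow-filled degenerate double-stranded DNA library. After 30 min at room temperature in Tris pH 7.5 buffer with NaCl and MgCl2, complexes were pulled down on amylose resin and washed three times. Binding is pull-down over input reads-per-million enrichment from pooled replicates of the proteinase K-released, PCR-barcoded, Illumina-sequenced DNA.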
“GATGATTGTTCTCCCAGCTGATGAATTGATCCTATCGAGTAAACAAATTTTCCTAATCTTTCTGTTCAAGCGCCATCTAC”: the binding signal is 0.983 RPM ratio (pull-down/input).

For the sequence “GATGATTGTTCTCCCAGCTGATGAATTTGCAACATCGAGTAAACAAATTTTCCTAATCTTTCTGTTCAAGCGCCATCTAC”, the binding signal was 1.7 RPM ratio (pull-down/input).

For the sequence “GATGATTGTTCTCCCAGCTGATGAATTCATCGGATCGAGTAAACAAATTTTCCTAATCTTTCTGTTCAAGCGCCATCTAC”, the binding signal was 0.838 RPM ratio (pull-down/input).

For the sequence “GATGATTGTTCTCCCAGCTGATGAATTCTACTTGTCGAGTAAACAAATTTTCCTAATCTTTCTGTTCAAGCGCCATCTAC”, the binding signal is 0.912 RPM ratio (pull-down/input).

In the case of “GATGATTGTTCTCCCAGCTGATGAATTACGTCGCTCGAGTAAACAAATTTTCCTAATCTTTCTGTTCAAGCGCCATCTAC”, the binding signal was 1.02 RPM ratio (pull-down/input).

“GATGATTGTTCTCCCAGCTGATGAATTGCTTCCTTCGAGTAAACAAATTTTCCTAATCTTTCTGTTCAAGCGCCATCTAC”: the binding signal was 1.06 RPM ratio (pull-down/input).

For the sequence “GATGATTGTTCTCCCAGCTGATGAATTGCGTGCCTCGAGTAAACAAATTTTCCTAATCTTTCTGTTCAAGCGCCATCTAC”, the binding signal was 1.09 RPM ratio (pull-down/input).

As for “GATGATTGTTCTCCCAGCTGATGAATTTTTATGCTCGAGTAAACAAATTTTCCTAATCTTTCTGTTCAAGCGCCATCTAC”, the binding signal was 0.981 RPM ratio (pull-down/input).

On to “GATGATTGTTCTCCCAGCTGATGAATTTGTCAGTTCGAGTAAACAAATTTTCCTAATCTTTCTGTTCAAGCGCCATCTAC”, for which the binding signal was 1.07 RPM ratio (pull-down/input).

In the case of “GATGATTGTTCTCCCAGCTGATGAATTTCTATGCTCGAGTAAACAAATTTTCCTAATCTTTCTGTTCAAGCGCCATCTAC”, the binding signal was 0.85 RPM ratio (pull-down/input).

Turning to “GATGATTGTTCTCCCAGCTGATGAATTTTCCCCGTCGAGTAAACAAATTTTCCTAATCTTTCTGTTCAAGCGCCATCTAC”, the binding signal was 0.906 RPM ratio (pull-down/input).

As to “GATGATTGTTCTCCCAGCTGATGAATTAAGGAGTTCGAGTAAACAAATTTTCCTAATCTTTCTGTTCAAGCGCCATCTAC”, the binding signal is 0.779 RPM ratio (pull-down/input).

On to “GATGATTGTTCTCCCAGCTGATGAATTTAACCCGTCGAGTAAACAAATTTTCCTAATCTTTCTGTTCAAGCGCCATCTAC”, for which the binding signal was 0.896 RPM ratio (pull-down/input).

With “GATGATTGTTCTCCCAGCTGATGAATTCCCTATGTCGAGTAAACAAATTTTCCTAATCTTTCTGTTCAAGCGCCATCTAC”, the binding signal is 0.802 RPM ratio (pull-down/input).

Consider “GATGATTGTTCTCCCAGCTGATGAATTCTAAAGGTCGAGTAAACAAATTTTCCTAATCTTTCTGTTCAAGCGCCATCTAC”, for which the binding signal is 0.876 RPM ratio (pull-down/input).

“GATGATTGTTCTCCCAGCTGATGAATTTTGCTCATCGAGTAAACAAATTTTCCTAATCTTTCTGTTCAAGCGCCATCTAC”: the binding signal was 0.986 RPM ratio (pull-down/input).

Consider “GATGATTGTTCTCCCAGCTGATGAATTCGCAAATTCGAGTAAACAAATTTTCCTAATCTTTCTGTTCAAGCGCCATCTAC”, for which the binding signal is 0.933 RPM ratio (pull-down/input).

As for “GATGATTGTTCTCCCAGCTGATGAATTCCCTCGTTCGAGTAAACAAATTTTCCTAATCTTTCTGTTCAAGCGCCATCTAC”, the binding signal was 0.824 RPM ratio (pull-down/input).

Consider “GATGATTGTTCTCCCAGCTGATGAATTCTCTTTATCGAGTAAACAAATTTTCCTAATCTTTCTGTTCAAGCGCCATCTAC”, for which the binding signal was 0.967 RPM ratio (pull-down/input).

As to “GATGATTGTTCTCCCAGCTGATGAATTGGGGGAATCGAGTAAACAAATTTTCCTAATCTTTCTGTTCAAGCGCCATCTAC”, the binding signal is 0.848 RPM ratio (pull-down/input).

With “GATGATTGTTCTCCCAGCTGATGAATTTGATATTTCGAGTAAACAAATTTTCCTAATCTTTCTGTTCAAGCGCCATCTAC”, the binding signal was 1.13 RPM ratio (pull-down/input).

Regarding “GATGATTGTTCTCCCAGCTGATGAATTACCCAAATCGAGTAAACAAATTTTCCTAATCTTTCTGTTCAAGCGCCATCTAC”, the binding signal is 1.04 RPM ratio (pull-down/input).

As to “GATGATTGTTCTCCCAGCTGATGAATTTTTACCTTCGAGTAAACAAATTTTCCTAATCTTTCTGTTCAAGCGCCATCTAC”, the binding signal is 0.923 RPM ratio (pull-down/input).

In the case of “GATGATTGTTCTCCCAGCTGATGAATTGAATCAATCGAGTAAACAAATTTTCCTAATCTTTCTGTTCAAGCGCCATCTAC”, the binding signal was 0.997 RPM ratio (pull-down/input).

For “GATGATTGTTCTCCCAGCTGATGAATTCGCCTGTTCGAGTAAACAAATTTTCCTAATCTTTCTGTTCAAGCGCCATCTAC”, the binding signal is 0.847 RPM ratio (pull-down/input).

Take “GATGATTGTTCTCCCAGCTGATGAATTATACCGCTCGAGTAAACAAATTTTCCTAATCTTTCTGTTCAAGCGCCATCTAC”: the binding signal is 0.892 RPM ratio (pull-down/input).

Regarding “GATGATTGTTCTCCCAGCTGATGAATTGTGCACCTCGAGTAAACAAATTTTCCTAATCTTTCTGTTCAAGCGCCATCTAC”, the binding signal is 0.983 RPM ratio (pull-down/input).

Take “GATGATTGTTCTCCCAGCTGATGAATTCCTTGCCTCGAGTAAACAAATTTTCCTAATCTTTCTGTTCAAGCGCCATCTAC”: the binding signal was 0.809 RPM ratio (pull-down/input).

Consider “GATGATTGTTCTCCCAGCTGATGAATTGTAACTATCGAGTAAACAAATTTTCCTAATCTTTCTGTTCAAGCGCCATCTAC”, for which the binding signal was 1.25 RPM ratio (pull-down/input).

For the sequence “GATGATTGTTCTCCCAGCTGATGAATTTGATTTTTCGAGTAAACAAATTTTCCTAATCTTTCTGTTCAAGCGCCATCTAC”, the binding signal is 1.05 RPM ratio (pull-down/input).

Take “GATGATTGTTCTCCCAGCTGATGAATTCAAGTTCTCGAGTAAACAAATTTTCCTAATCTTTCTGTTCAAGCGCCATCTAC”: the binding signal is 0.77 RPM ratio (pull-down/input).

For the sequence “GATGATTGTTCTCCCAGCTGATGAATTTAGTTCGTCGAGTAAACAAATTTTCCTAATCTTTCTGTTCAAGCGCCATCTAC”, the binding signal is 0.974 RPM ratio (pull-down/input).

As for “GATGATTGTTCTCCCAGCTGATGAATTCGCAGCATCGAGTAAACAAATTTTCCTAATCTTTCTGTTCAAGCGCCATCTAC”, the binding signal is 1.04 RPM ratio (pull-down/input).

For “GATGATTGTTCTCCCAGCTGATGAATTGAAACTTTCGAGTAAACAAATTTTCCTAATCTTTCTGTTCAAGCGCCATCTAC”, the binding signal was 0.872 RPM ratio (pull-down/input).

Regarding “GATGATTGTTCTCCCAGCTGATGAATTACAGCTGTCGAGTAAACAAATTTTCCTAATCTTTCTGTTCAAGCGCCATCTAC”, the binding signal was 0.953 RPM ratio (pull-down/input).

Regarding “GATGATTGTTCTCCCAGCTGATGAATTATTCGCATCGAGTAAACAAATTTTCCTAATCTTTCTGTTCAAGCGCCATCTAC”, the binding signal is 1.4 RPM ratio (pull-down/input).

As to “GATGATTGTTCTCCCAGCTGATGAATTCTTTGTTTCGAGTAAACAAATTTTCCTAATCTTTCTGTTCAAGCGCCATCTAC”, the binding signal is 1.23 RPM ratio (pull-down/input).

On to “GATGATTGTTCTCCCAGCTGATGAATTGTTTCCATCGAGTAAACAAATTTTCCTAATCTTTCTGTTCAAGCGCCATCTAC”, for which the binding signal was 1.35 RPM ratio (pull-down/input).

For “GATGATTGTTCTCCCAGCTGATGAATTCTGTACTTCGAGTAAACAAATTTTCCTAATCTTTCTGTTCAAGCGCCATCTAC”, the binding signal was 0.932 RPM ratio (pull-down/input).

Regarding “GATGATTGTTCTCCCAGCTGATGAATTGAGAGGGTCGAGTAAACAAATTTTCCTAATCTTTCTGTTCAAGCGCCATCTAC”, the binding signal is 0.757 RPM ratio (pull-down/input).
